# Source: the supplement of paper PMC10037445
# In all, about 2,900 compounds were measured (“IRF Lucia reporter activity, fold change vs agonist alone”: median about 0.9, highest 2% from about 2.8 on). The list shows a part of the results.
# Legend:
# RAW-Dual [1] = assay: IRF Lucia reporter activity, fold change vs agonist alone; higher = enhanced IRF activity; conditions: agonist: MPLA (TLR4) […]
# Method in brief: (§1)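 Reporter activity is given as fold change relative to agonist-alone wells. To measure it, 50 nL of library stock was pin-tooled onto RAW-Dual macrophages (50,000 cells/well, DMEM, 384-well plates), a PRR agonist followed 1 h later, and cells stayed at 37 °C, 5% CO2. Twenty hours on, supernatant was assayed for IRF (QuantiLuc luminescence) and NF-κB (QuantiBlue, 620 nm absorbance), and wells under 70% of agonist-control IncuCyte confluency in both mask sets were marked cytotoxic.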
# RAW-Dual [2] = assay: IRF Lucia reporter activity, fold change vs agonist alone; cytotoxicity flag (confluency mask): cytotoxic (confluency <70% of control); higher = enhanced IRF activity
# Method in brief: as §1
# RAW-Dual [3] = assay: IRF Lucia reporter activity, fold change vs agonist alone; cytotoxicity flag (confluency mask): not cytotoxic; higher = enhanced IRF activity
# Method in brief: as §1
# [4] = agonist: 3'3'-cGAMP (STING) 10 ug/mL
# [5] = library stock concentration (final ~1000-fold dilution): 10 mM, cytotoxicity flag (confluency mask): not cytotoxic
smiles,measurement,setting,value
O=C(c1ccccc1O)c1[nH]c(Cl)c(Cl)c1-n1c(C(=O)c2ccccc2O)cc(Cl)c1Cl,IRF Lucia reporter activity,"RAW-Dual [1]; library stock concentration (final ~1000-fold dilution): 10 mM, cytotoxicity flag (confluency mask): cytotoxic (confluency <70% of control)",2
O=C(c1ccccc1O)c1[nH]c(Cl)c(Cl)c1-n1c(C(=O)c2ccccc2O)cc(Cl)c1Cl (library stock concentration (final ~1000-fold dilution): 10 mM),IRF Lucia reporter activity,RAW-Dual [2]; [4],0.252
same,IRF Lucia reporter activity,RAW-Dual [2]; agonist: LPS (TLR4) 0.1 ug/mL,2.48
O=C(O)C(=O)c1cn(Cc2ccccc2)c2ccc(-c3ccc(OC(F)(F)F)cc3)cc12 (library stock concentration (final ~1000-fold dilution): 10 mM),IRF Lucia reporter activity,RAW-Dual [3]; [4],0.879
same,IRF Lucia reporter activity,RAW-Dual [3]; agonist: LPS (TLR4) 0.1 ug/mL,1.14
CC(C)=CCCC1(C)C=Cc2c(O)c3c(c(CC=C(C)C)c2O1)OC12C(=CC4CC1C(C)(C)OC2(C/C=C(/C)C(=O)O)C4=O)C3=O (stereo unspecified) (library stock concentration (final ~1000-fold dilution): 10 mM),IRF Lucia reporter activity,RAW-Dual [3]; [4],0.969
same,IRF Lucia reporter activity,RAW-Dual [3]; agonist: LPS (TLR4) 0.1 ug/mL,0.0102
CC(C)=CCCC1(C)C=Cc2c(O)c3c(c(CC=C(C)C)c2O1)OC12C(=CC4CC1C(C)(C)OC2(C/C=C(/C)C(=O)O)C4=O)C3=O (stereo unspecified),IRF Lucia reporter activity,RAW-Dual [1]; [5],1.15
CC12CCC3C(CCC45OC4C(O)=C(C#N)CC35C)C1CCC2O (stereo unspecified) (library stock concentration (final ~1000-fold dilution): 10 mM),IRF Lucia reporter activity,RAW-Dual [3]; [4],1.14
same,IRF Lucia reporter activity,RAW-Dual [3]; agonist: LPS (TLR4) 0.1 ug/mL,0.987
CC12CCC3C(CCC45OC4C(O)=C(C#N)CC35C)C1CCC2O (stereo unspecified),IRF Lucia reporter activity,RAW-Dual [1]; [5],1.04
O=c1c2ccccc2[se]n1-c1ccccc1 (library stock concentration (final ~1000-fold dilution): 10 mM),IRF Lucia reporter activity,RAW-Dual [3]; [4],0.18
same,IRF Lucia reporter activity,RAW-Dual [3]; agonist: LPS (TLR4) 0.1 ug/mL,0.28
c1ccc2c(c1)Nc1ccccc1S2,IRF Lucia reporter activity,RAW-Dual [1]; [5],1.14
c1ccc2c(c1)Nc1ccccc1S2 (library stock concentration (final ~1000-fold dilution): 10 mM),IRF Lucia reporter activity,RAW-Dual [3]; [4],0.89
same,IRF Lucia reporter activity,RAW-Dual [3]; agonist: LPS (TLR4) 0.1 ug/mL,1.04
O=C(O)C(=O)CBr,IRF Lucia reporter activity,RAW-Dual [1]; [5],0.918
O=C(O)C(=O)CBr (library stock concentration (final ~1000-fold dilution): 10 mM),IRF Lucia reporter activity,RAW-Dual [3]; [4],0.812
same,IRF Lucia reporter activity,RAW-Dual [3]; agonist: LPS (TLR4) 0.1 ug/mL,0.867
CCNC(=O)CC1N=C(c2ccc(Cl)cc2)c2cc(OC)ccc2-n2c(C)nnc21 (stereo unspecified) (library stock concentration (final ~1000-fold dilution): 10 mM),IRF Lucia reporter activity,RAW-Dual [3]; [4],0.273
same,IRF Lucia reporter activity,RAW-Dual [3]; agonist: LPS (TLR4) 0.1 ug/mL,0.225
CCNC(=O)CC1N=C(c2ccc(Cl)cc2)c2cc(OC)ccc2-n2c(C)nnc21 (stereo unspecified),IRF Lucia reporter activity,RAW-Dual [1]; [5],0.216
CCNc1nc(Cl)nc(NC(C)C)n1 (library stock concentration (final ~1000-fold dilution): 10 mM),IRF Lucia reporter activity,RAW-Dual [3]; [4],1.01
same,IRF Lucia reporter activity,RAW-Dual [3]; agonist: LPS (TLR4) 0.1 ug/mL,1.25
CCNc1nc(Cl)nc(NC(C)C)n1,IRF Lucia reporter activity,RAW-Dual [1]; [5],1.11
Cl[Te]1(Cl)(Cl)OCCO1.N (library stock concentration (final ~1000-fold dilution): 10 mM),IRF Lucia reporter activity,RAW-Dual [3]; [4],0.82
same,IRF Lucia reporter activity,RAW-Dual [3]; agonist: LPS (TLR4) 0.1 ug/mL,1.26
CN1C2CCC1CC(OC(=O)C(CO)c1ccccc1)C2.CN1C2CCC1CC(OC(=O)C(CO)c1ccccc1)C2.O=S(=O)(O)O (stereo unspecified) (library stock concentration (final ~1000-fold dilution): 10 mM),IRF Lucia reporter activity,RAW-Dual [3]; [4],0.999
same,IRF Lucia reporter activity,RAW-Dual [3]; agonist: LPS (TLR4) 0.1 ug/mL,1.4
CN1C2CCC1CC(OC(=O)C(CO)c1ccccc1)C2.CN1C2CCC1CC(OC(=O)C(CO)c1ccccc1)C2.O=S(=O)(O)O (stereo unspecified),IRF Lucia reporter activity,RAW-Dual [1]; [5],1.02
Cn1cc(C2=C(c3cn(C4CCN(Cc5ccccn5)CC4)c4ccccc34)C(=O)NC2=O)c2ccccc21,IRF Lucia reporter activity,RAW-Dual [1]; [5],0.847
Cn1cc(C2=C(c3cn(C4CCN(Cc5ccccn5)CC4)c4ccccc34)C(=O)NC2=O)c2ccccc21 (library stock concentration (final ~1000-fold dilution): 10 mM),IRF Lucia reporter activity,RAW-Dual [3]; [4],0.851
same,IRF Lucia reporter activity,RAW-Dual [3]; agonist: LPS (TLR4) 0.1 ug/mL,0.525
CNC1CC(N)C(O)C(OC2OC(CO)C(O)C3OC4(OC(C(N)CO)C(O)C(O)C4O)OC23)C1O (stereo unspecified),IRF Lucia reporter activity,"RAW-Dual [1]; library stock concentration (final ~1000-fold dilution): 10 mM water, cytotoxicity flag (confluency mask): not cytotoxic",1.39
CNC1CC(N)C(O)C(OC2OC(CO)C(O)C3OC4(OC(C(N)CO)C(O)C(O)C4O)OC23)C1O (stereo unspecified) (library stock concentration (final ~1000-fold dilution): 10 mM water),IRF Lucia reporter activity,RAW-Dual [3]; [4],1.16
same,IRF Lucia reporter activity,RAW-Dual [3]; agonist: LPS (TLR4) 0.1 ug/mL,0.934
N#CC(C#N)=Cc1ccc(O)c(O)c1 (library stock concentration (final ~1000-fold dilution): 10 mM),IRF Lucia reporter activity,RAW-Dual [3]; [4],0.674
same,IRF Lucia reporter activity,RAW-Dual [3]; agonist: LPS (TLR4) 0.1 ug/mL,1.21
CCN(C)C(=O)Oc1cccc(C(C)N(C)C)c1.O=C(O)C(O)C(O)C(=O)O (stereo unspecified) (library stock concentration (final ~1000-fold dilution): 10 mM),IRF Lucia reporter activity,RAW-Dual [3]; [4],1.05
same,IRF Lucia reporter activity,RAW-Dual [3]; agonist: LPS (TLR4) 0.1 ug/mL,0.966
CCN(C)C(=O)Oc1cccc(C(C)N(C)C)c1.O=C(O)C(O)C(O)C(=O)O (stereo unspecified),IRF Lucia reporter activity,RAW-Dual [1]; [5],0.95
COc1ccc(C(CN(C)C)C2(O)CCCCC2)cc1 (stereo unspecified) (library stock concentration (final ~1000-fold dilution): 10 mM),IRF Lucia reporter activity,RAW-Dual [3]; [4],0.983
same,IRF Lucia reporter activity,RAW-Dual [3]; agonist: LPS (TLR4) 0.1 ug/mL,0.867
COc1ccc(C(CN(C)C)C2(O)CCCCC2)cc1 (stereo unspecified),IRF Lucia reporter activity,RAW-Dual [1]; [5],0.973
COC(=O)C(N)CCCNC(=N)N[N+](=O)[O-].Cl (stereo unspecified) (library stock concentration (final ~1000-fold dilution): 10 mM water),IRF Lucia reporter activity,RAW-Dual [3]; [4],1.19
same,IRF Lucia reporter activity,RAW-Dual [3]; agonist: LPS (TLR4) 0.1 ug/mL,0.93
